# Reference: PubChem BioAssay AID485344 (National Center for Advancing Translational Sciences (NCATS), 2010)
# In all, about 340,000 compounds went through this assay and about 6,900 (2%) were called active. Rule as the data show it: active = inhibition above about 30%; inactive = below that, where a call was filed. The list shows a part of the results, in another mix than the full data. Entries without a call were filed so in the source. The source holds several records for some structures; these can differ, active in one and inactive in another.
# Target: D(2) dopamine receptor (Homo sapiens) (UniProt P14416)
# Sequence of UniProt P14416 (P14416 whole entry, looked up): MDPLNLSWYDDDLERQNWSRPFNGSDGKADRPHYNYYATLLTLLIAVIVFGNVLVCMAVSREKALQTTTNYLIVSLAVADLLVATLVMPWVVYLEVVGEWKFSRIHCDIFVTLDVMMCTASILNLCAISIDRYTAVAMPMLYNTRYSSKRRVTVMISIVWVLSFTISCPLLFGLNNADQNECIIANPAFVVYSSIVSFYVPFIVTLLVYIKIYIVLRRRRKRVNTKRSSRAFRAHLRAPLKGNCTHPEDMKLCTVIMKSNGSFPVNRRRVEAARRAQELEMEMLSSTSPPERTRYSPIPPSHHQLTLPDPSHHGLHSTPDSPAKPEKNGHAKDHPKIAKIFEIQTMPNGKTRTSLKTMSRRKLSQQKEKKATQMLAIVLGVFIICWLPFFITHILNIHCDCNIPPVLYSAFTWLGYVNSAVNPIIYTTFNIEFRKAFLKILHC
# Assay: HTS Assay for Allosteric Antagonists of the Human D2 Dopamine Receptor: Primary Screen for Antagonists; also: 0% is about no effect
# Conditions: HEK293 TREx D2 cells, calcium flux, dopamine EC80; at 10 µM; stronger effect = higher value
# Outline: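 Tetracycline-induced HEK293 TREx cells expressing D2 receptor forced-coupled to calcium signalling, loaded with no-wash calcium dye. Compounds added and calcium flux read 180 s, then dopamine added at EC80 and read a further 180 s.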
row,Structure (SMILES),inhibition
1,CC1=C(c2ccc(C)c(C)c2)S(=O)(=O)N=C1N1CCC(C(=O)NCc2ccc(Cl)cc2)CC1,12.5%
2,O=C(NCCC1=CCCCC1)c1ccc2c(c1)N(Cc1ccc(Cl)cc1)C(=O)c1ccccc1S2=O (stereo not drawn),-5.55%
3,Cn1nc(-c2ccc(Cl)cc2)c2cc(C(=O)N3CCOCC3)sc21,active: 30.9%
4,O=c1c2cc(N3CCOCC3)ccc2[nH]c(=S)n1CCCN1CCCCCC1,active: 38.7%
5,CCOC(=O)c1cccc(NC(=O)c2cnc(N3CCCCC3)c3ccccc23)c1,-0.495%
6,CCOc1ccc(NC(=O)Cn2cc(C(=O)c3ccc(CC)cc3)c(=O)c3ccc(C)nc32)cc1,-2.98%
7,CCc1cccc(NC(=O)CC2Oc3ccc(C)cc3NC2=O)c1 (stereo not drawn),15.2%
8,Cc1ccc(NC(=O)CC2Sc3ccccc3NC2=O)c(Br)c1 (stereo not drawn),10.5%
9,OC1(c2ccc(Br)cc2)CCN(Cc2cccc(Br)c2)CC1,active: 103%
10,C=C(C)Cn1c(SCC(=O)Nc2cccc(Cl)c2)nc2sc3c(c2c1=O)CCCC3,-5.29%
11,O=C(NCCS(=O)(=O)N1CCN(c2cccc(Cl)c2)CC1)c1cc(=O)c2ccccc2o1,-11.1%
12,CN1CCC(Oc2ccccc2Sc2ccccc2)CC1,active: 32.4%
13,CCn1c(CNC(=O)C23CC4CC(CC(C4)C2)C3)nnc1SCC(=O)Nc1ccc(F)cc1,2.22%
14,CCOC(=O)c1cc(NC(=O)c2ccc(OC)cc2)c(=O)n2c1oc1ccc(Cl)cc12,22.5%
15,CC1Cc2ccccc2N1C(=O)CSc1nnc(-c2cccc(Cl)c2)o1 (stereo not drawn),-10.5%
16,O=c1[nH]c2ccc(NCc3ccccc3F)cc2[nH]1,7.51%
17,O=C(CCc1ccccc1)NCc1ccc2c(c1)CCN2C(=O)c1ccc(Cl)cc1,-0.162%
18,CCOc1ccc(CCNC(=O)c2cc3c(=O)n(C)c4ccccc4c3n2C)cc1,20.7%
19,COc1ccc(/C=C/C(=O)Nc2ccc3nc(N4CCCCC4)cc(C)c3c2)cc1OC,-0.876%
20,COc1cc(NC(=O)c2ccc(-n3cnc4cccnc43)cc2)cc(OC)c1,13%
21,CC(C)c1ccc(Nc2c(-c3ccco3)nc3ccccn23)cc1,0.884%
22,O=c1c(Cc2ccc(F)cc2)c(O)ccn1CCc1ccccn1,active: 40.9%
23,Cc1ccc(S(=O)(=O)N(CC(=O)Nc2ccc3c(c2)OCO3)c2ccc(C)c(Cl)c2)cc1,-3.47%
24,CCOC(=O)c1ccc(NC(=O)CSc2nc3c([nH]c4ccccc43)c(=O)n2C)cc1,6.82%

row,Structure (SMILES),inhibition
1,Cc1cn2c(=O)cc(COc3ccccc3NC(=O)c3ccc(Cl)cc3)nc2s1,10.7%
2,Cc1ccc(NC(=O)C2CCC(CNS(=O)(=O)c3ccc4c(c3)CCCC(=O)N4)CC2)c(C)c1 (stereo not drawn),4.28%
3,Cc1ccc2oc(-c3ccc(Cl)c(NC(=O)c4ccc(OC(C)C)cc4)c3)nc2c1,2.58%
4,CCCCc1nc2ccccc2n1CC(=O)N(COCC)c1c(C)cccc1CC,-16.4%
5,CC1=Nc2ccc(C)cc2/C1=C/c1c(N)n2oc(C)cc2nc1=O,active: 60.6%
6,COC(=O)c1ccccc1NC(=O)Cn1c(=O)n(CCCC(=O)NCc2ccccc2OC)c(=O)c2ccccc21,1.23%
7,COc1ccc(-c2cc(=O)oc3c4c(ccc23)OCN(Cc2cccc(OC)c2)C4)cc1,4.65%
8,Cc1ccc(C)c(NC(=O)C(c2ccccc2)N2Cc3ccccc3C2=O)c1 (stereo not drawn),-11.8%
9,Cc1cc(C)cc(-n2ccn(CC(=O)Nc3ccccc3F)c(=O)c2=O)c1,-7.28%
10,CCOc1ccc(-n2nc(CO)c(C(=O)NCc3cccc(OC)c3)n2)cc1,1.91%
11,CC(=O)c1ccc(NC(=O)c2nc3nc(C)cc(C(F)F)n3n2)cc1,15.1%
12,O=C(CCC1N=C2c3ccccc3N=C(SCc3ccc(F)cc3)N2C1=O)NC1CCCCC1 (stereo not drawn),16%
13,COc1cc2cc(CNc3ccccc3)c(=O)n(CC(=O)Nc3cc(C)cc(C)c3)c2cc1OC,0.954%
14,COc1ccccc1NC(=O)C1CCN(c2cnccn2)CC1,23.6%
15,CC(=O)N1CCCc2cc(S(=O)(=O)N3CCN(c4cccc(C(F)(F)F)c4)CC3)ccc21,6.07%
16,CCN1/C(=C/c2ccc3cc(C)ccc3[n+]2CC)Sc2cc(C)ccc21,active: 34.5%
17,CC1CC(C)CN(CCCNC(=O)c2ccc3c(c2)NC(=O)C(N2CCCCC2)S3)C1 (stereo not drawn),active: 87.7%
18,CCN(CCN(C)C)C(=O)C1CCN(S(=O)(=O)c2c(C)noc2/C=C/c2ccccc2F)CC1,-26.1%
19,COC(=O)Cc1c(C)c2cc3c(c(C)c2oc1=O)OCN(CCc1ccc(OC)cc1)C3,16.6%
20,Cc1cc(C)c(NC(=O)Cn2nnc(-c3nc(-c4ccccc4)no3)c2N)c(C)c1,1.64%
21,CN(C)c1ncc(CN2CCC(CO)(CCCc3ccccc3)CC2)s1,active: 62.2%
22,Cc1cc(C)c2c(n1)SCCN2C(=O)Nc1ccc(C(=O)Nc2ccc(C(C)C)cc2)cc1,7.25%
23,O=C(Nc1c(Cl)cccc1Cl)c1cc(-c2cccc(O)c2)on1,18.2%
24,Cc1cccc(-c2c3c(=O)n(C)c(=O)n(C)c3c3cnc4ccccc4n23)c1,4.13%

row,Structure (SMILES),inhibition
1,COc1ccc(C2c3[nH]c4ccc(OC)cc4c3CCN2C(=O)Nc2ccccc2)cc1 (stereo not drawn),10.9%
2,CCC(=O)Nc1sc2c(c1C(=O)Nc1cccc(C)c1)CCCC2,-13.6%
3,Cc1ccc(NC(=O)Cn2cc(S(=O)(=O)c3ccccc3)c(=O)c3cc4c(cc32)OCO4)cc1,5.58%
4,COc1ccccc1Nc1nn2c(=O)c3ccc(C(=O)NC(C)c4ccccc4)cc3nc2s1 (stereo not drawn),3.16%
5,Cc1cccc(C(=O)Nc2ccc(OCc3cc(=O)n4c5c(sc4n3)CCCC5)cc2)c1,5.99%
6,C=CCC(CC=C)(CNC(=O)C(=O)Nc1ccc(C(=O)OCC)cc1)c1ccccc1,4.88%
7,O=C(CN(CCN1CCOCC1)C(=O)Cn1nnc(-c2ccc(F)cc2)n1)NC1CCCCC1,active: 70.6%
8,Cc1ccc(NC(=O)C(Cc2ccccc2)n2cccc2)cc1C (stereo not drawn),-1.12%
9,Cc1ccc(-c2nc3ccccn3c2Nc2ccc3c(c2)OCO3)o1,-4.22%
10,COc1ccc(-c2nn(-c3cccc([N+](=O)[O-])c3)c3c2cnc2cc4c(cc23)OCO4)cc1,3.95%
11,CC(C)c1ccc(Nc2nc3c(S(=O)(=O)c4ccc(Br)cc4)nnn3c3ccsc23)cc1,4.82%
12,CCCN(C(=O)c1cc2c(s1)-c1c(C)cccc1OC2)c1ccc(OCC)cc1,-2.67%
13,CCOC(=O)c1cc(-c2ccc(C)cc2)n(CC(=O)NC2CCCCCC2)c1C,-0.596%
14,CCSc1nnnn1-c1cccc(C(=O)O)c1,-5.62%
15,Cc1cc2nc(-c3cccc(NC(=O)CSc4ccc(Cl)cc4)c3)oc2cc1C,1.3%
16,Cc1ccc(CNC(=O)c2cccc(-n3cnc4cccnc43)c2)cc1,4.73%
17,COc1ccc(OCc2cc(C(=O)N(C)CCC3CCOCC3)no2)c(Cl)c1,active: 65.2%
18,CCc1ccc(NC(=O)CCNS(=O)(=O)c2ccc3c(c2)CCCC(=O)N3)cc1,-4.08%
19,COc1cccc(C(=O)Nc2c3c(nn2-c2ccc(Cl)cc2)CS(=O)(=O)C3)c1,15.6%
20,CCOC(=O)c1scc(-c2ccccc2)c1S(=O)(=O)N1CCN(c2ccccc2OC)CC1,5.76%
21,COc1ccc(NC(=O)c2oc3ccc(S(=O)(=O)N(C)C4CCCCC4)cc3c2C)cc1,0.134%
22,Cc1ccc(CNC(=O)CSc2nc3n[nH]c(C)c3c(=N)n2-c2cccc(C)c2)cc1,11.6%
23,CCOc1ccc(NC(=O)Cn2cc(S(=O)(=O)N3CCN(c4ccccc4F)CC3)c3ccccc3c2=O)cc1,6.22%
24,O=C(NCCc1csc2nc(-c3cccc(F)c3)nn12)c1ccc(Br)o1,-12.6%

row,Structure (SMILES),inhibition
1,COc1ccc(N(CC(=O)N2CCN(c3ccc(F)cc3)CC2)S(=O)(=O)c2c(C)n[nH]c2C)cc1,1.1%
2,COc1ccc(-c2noc(-c3ccc(N4CCC(C)CC4)c([N+](=O)[O-])c3)n2)cc1OC,-10.9%
3,CCCCNc1nc2c(c(=O)n(Cc3ccc(Cl)c(Cl)c3)c(=O)n2C)n1C,-0.463%
4,CCOc1ccc(CCNC(=O)CCN2N=C(c3ccc(OC)cc3)CCC2=O)cc1OCC,1.11%
5,COc1ccc(N2CCN(C(=O)c3cc(NS(=O)(=O)c4ccc(F)cc4)ccn3)CC2)cc1,-8.52%
6,CCOc1ccc2[nH]c(=O)c(CN(CCO)C(c3nnnn3C3CCCCC3)C(C)C)cc2c1 (stereo not drawn),active: 34.8%
7,Cc1ccc(C)c(NC(=O)CSc2ncc3c(n2)-c2cc(Cl)ccc2N(Cc2ccccc2F)S3(=O)=O)c1,-4.23%
8,Cc1ccc(C)c(N2CCN(C(=O)CCn3c(=O)[nH]c4ccccc4c3=O)CC2)c1,-8.77%
9,CCCSCCCNC(=O)c1cc2n(n1)CCCN(Cc1ccc(C)cc1)C2=O,-1.84%
10,COc1ccc(Cn2ccc3nc(C)c(C(=O)NCc4ccc(C)cc4)cc3c2=O)cc1,6.43%
11,CC1(C)CC(=O)c2cc(-c3nc(-c4ccc(Cl)cc4)cs3)c(=O)n(-c3ccc(F)cc3)c2C1,21%
12,Cc1cc(Cl)ccc1NC(=O)CCn1nc(C)c2c(C)n(-c3ccccc3)nc2c1=O,2.15%
13,O=C(CCC1N=C2c3ccccc3N=C(SCc3ccccc3Cl)N2C1=O)N1CCN(c2ccccc2)CC1 (stereo not drawn),4.06%
14,COC(=O)c1ccc(NC(=O)c2cccc3c2C(=O)N(C2CCCCC2)C3)cc1,4.09%
15,COC(=O)CC1Oc2ccc(C)cc2-n2cc(-c3ccc(F)cc3)nc21 (stereo not drawn),3.64%
16,Cc1noc2ncnc(N3CCN(c4ccccc4F)CC3)c12,-9.07%
17,COC(=O)c1ccc(C(=O)Nc2ccc(-c3nc4cc(NC(=O)c5ccc(C(=O)OC)cc5)ccc4o3)cc2)cc1,4.82%
18,COc1ccc(CN(Cc2ccco2)c2cnc(S(C)(=O)=O)nc2C(=O)Nc2ccc(C)c(C)c2)cc1,-2.01%
19,Cc1ccc(Cl)cc1NC(=O)Cn1cc2c(n1)CCCCC2,-0.573%
20,CCSc1ncc(Cl)c(C(=O)Nc2ccc(S(=O)(=O)Nc3nccc(C)n3)cc2)n1,-12%
21,Cc1cccc(C)c1OCCn1c(C2CC(=O)N(Cc3ccc(F)cc3)C2)nc2ccccc21 (stereo not drawn),-4.61%
